T1: soluble part of fibroblast growth factor receptor 3 (sFGFR3) (human, UniProt P22607 24-375, biotinylated with Sulfo-NHS-Biotin where it was immobilized on the streptavidin chip (sites not given))
T1 construct: also called soluble FGFR3; soluble form of FGFR3
T1 sequence: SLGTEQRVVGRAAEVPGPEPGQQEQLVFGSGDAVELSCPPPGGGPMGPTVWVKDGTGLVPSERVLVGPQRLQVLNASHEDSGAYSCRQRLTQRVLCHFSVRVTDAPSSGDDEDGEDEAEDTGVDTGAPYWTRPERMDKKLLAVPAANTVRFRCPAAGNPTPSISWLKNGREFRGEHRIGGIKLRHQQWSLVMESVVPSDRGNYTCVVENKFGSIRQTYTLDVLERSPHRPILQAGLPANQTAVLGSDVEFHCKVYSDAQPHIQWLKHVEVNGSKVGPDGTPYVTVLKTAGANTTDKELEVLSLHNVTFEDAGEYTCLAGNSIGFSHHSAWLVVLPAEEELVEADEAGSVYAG


Experiments:
[1] = target: T1, soluble part of fibroblast growth …; assay: SPR, BIAcore 3000, Langmuir 1:1 model; which partner was immobilized is not stated for this row
Source text: (§1) sFGFR3 was biotinylated with Sulfo-NHS-Biotin standard reagent and purified via size exclusion chromatography (Superdex 200). 500-1500 RU sFGFR3 (ON-ligand) was immobilized by injection on a Streptavidin coated CM-5 sensor chip (GE Healthcare). Alternatively, 500-1500 RU sFGFR binding protein (ON-ligand) was immobilized on a CM-5 sensor chip (GE Healthcare). The chip was equilibrated with SPR running buffer.
(§2) Upon binding, protein analyte was accumulated on the surface increasing the refractive index. This change in the refractive index was measured in real time and plotted as response or resonance units versus time. The analytes were applied to the chip in serial dilutions with a flow rate of 30 μl/min. The association was performed for 120 seconds and the dissociation for 360 seconds. After each run, the chip surface was regenerated with 30 μl regeneration buffer (10 mM Glycine) and equilibrated with running buffer.
(§3) Binding studies were carried out by the use of the BIAcore 3000 (GE Healthcare); data evaluation was operated via the BIAevaluation 3.0 software, provided by the manufacturer, by the use of the Langmuir 1:1 model (RI=0). Evaluated dissociation constants (KD) were standardized against the immobilized protein and indicated. Shown is the change in refractive index measured in real time and plotted as response or resonance unit [RU] versus time [sec]. Results are shown in FIG. 2 and in Table 3 and in Table 4. SEQ1 refers to sFGFR binding protein of SEQ ID NO: 1, SEQ2 refers to sFGFR binding protein of SEQ ID NO: 2, SEQ3 refers to sFGFR binding protein of SEQ ID NO: 3, etc. PAdelFc refers to the non-Ig-binding proteins of SEQ ID NO: 30, Cys=Cysteine.

[2] = target: T1, soluble part of fibroblast growth …; assay: affinity chromatography breakthrough; 20 mg/ml ligand coupled to Praesto 85 epoxy activated resin, loaded with 1 mg/ml sFGFR3 at 6 min residence time
Description: DBC 10%. The resin with immobilized ligand was equilibrated in 1×PBS, pH 7.3. The dynamic binding capacity (DBC) was determined by the mass of 1 mg/ml injected sFGFR3 in 1×PBS pH 7.3 at 10% breakthrough at 6 min residence time.
20 mg/ml sFGFR3 binding protein was coupled to the resin with immobilized sFGFR3 binding protein for 3 h at 35° C. in the presence of 175 mg/ml crystalline Na₂SO₄, pH 8.5. 1 mg/ml sFGFR3 was loaded at 6 min residence time.

[3] = target: T1, soluble part of fibroblast growth …; assay: SPR, BIAcore 3000, Langmuir 1:1 model; which partner was immobilized is not stated for this row; remark: listed apart in the source
Source text: as §1, §2, §3

[4] = target: T1, soluble part of fibroblast growth …; assay: SPR, BIAcore 3000, Langmuir 1:1 model; sFGFR3 immobilized, fusion protein as analyte (FIG. 2A)
Source text: as §1, §2
(§4) Binding studies were carried out by the use of the BIAcore 3000 (GE Healthcare); data evaluation was operated via the BIAevaluation 3.0 software, provided by the manufacturer, by the use of the Langmuir 1:1 model (RI=0). Evaluated dissociation constants (KD) were standardized against the immobilized protein and indicated. Shown is the change in refractive index measured in real time and plotted as response or resonance unit [RU] versus time [sec]. […]

[5] = target: T1, soluble part of fibroblast growth …; assay: SPR; fusion protein immobilized, sFGFR3 as analyte (FIG. 2B); binding protein CID206146 immobilized, sFGFR3 as analyte (FIG. 2B)
Source text: as §1, §2, §4

| Binder | Kd [1] [nM] | Dynamic binding capacity 10% at 6 min residence time [2] [mg/mL] | Kd [3] [nM] | other results |
| --- | --- | --- | --- | --- |
| CID206078 (homotetramer of SEQ ID NO: 1 with C-terminal cysteine) (designed binder) IAAKFDHKQSTADTIILELPNLTEEQRNAFRQSLSDDPSVSKEVLYEAIWLNWSQAPKIAAKFDHKQSTADTIILELPNLTEEQRNAFRQSLSDDPSVSKEVLYEAIWLNWSQAPKIAAKFDHKQSTADTIILELPNLTEEQRNAFRQSLSDDPSVSKEVLYEAIWLNWSQAPKIAAKFDHKQSTADTIILELPNLTEEQRNAFRQSLSDDPSVSKEVLYEAIWLNWSQAPKC | 56.4 | 10.1 | – | – |
| CID206083 (SEQ2-PAdelFc-SEQ1-PAdelFc-Cys) (designed binder) IAAKFDQHQSTADEIILKLPNLTEEQRNAFRQSLSDDTSVSREVLYEALWLNASQAPKIAAKFDEAQQAADYEILHLPNLTEEQRNAFRQSLRDDPSVSLEVLGEAQKLNDSQAPKIAAKFDHKQSTADTIILELPNLTEEQRNAFRQSLSDDPSVSKEVLYEAIWLNWSQAPKIAAKFDEAQQAADYEILHLPNLTEEQRNAFRQSLRDDPSVSLEVLGEAQKLNDSQAPKC | 10 | 9.4 | – | – |
| CID206082 (SEQ1-PAdelFc-SEQ2-PAdelFc-Cys) (designed binder) IAAKFDHKQSTADTIILELPNLTEEQRNAFRQSLSDDPSVSKEVLYEAIWLNWSQAPKIAAKFDEAQQAADYEILHLPNLTEEQRNAFRQSLRDDPSVSLEVLGEAQKLNDSQAPKIAAKFDQHQSTADEIILKLPNLTEEQRNAFRQSLSDDTSVSREVLYEALWLNASQAPKIAAKFDEAQQAADYEILHLPNLTEEQRNAFRQSLRDDPSVSLEVLGEAQKLNDSQAPKC | 12.8 | 8.9 | – | – |
| CID206080 (PAdelFc-SEQ1-SEQ1-PAdelFc-Cys) (designed binder) IAAKFDEAQQAADYEILHLPNLTEEQRNAFRQSLRDDPSVSLEVLGEAQKLNDSQAPKIAAKFDHKQSTADTIILELPNLTEEQRNAFRQSLSDDPSVSKEVLYEAIWLNWSQAPKIAAKFDHKQSTADTIILELPNLTEEQRNAFRQSLSDDPSVSKEVLYEAIWLNWSQAPKIAAKFDEAQQAADYEILHLPNLTEEQRNAFRQSLRDDPSVSLEVLGEAQKLNDSQAPKC | 232 | 8.3 | – | – |
| CID206113 (PAdelFc-SEQ9-PAdelFc-Cys) (designed binder, Built from the printed domain order) IAAKFDEAQSAADSEILHLPNLTEEQRNAFRQSLSDDPSVSLEVLGEAQKLNDSQAPKNAASEDWAQFSAMYEIDHLPNLTMRQAIWFIHSLYHDPSVSKEVLGEAQKLNDSQAPKIAAKFDEAQSAADSEILHLPNLTEEQRNAFRQSLSDDPSVSLEVLGEAQKLNDSQAPKC | – | – | 15 | – |
| CID206079 (SEQ1-SEQ1-PAdelFc-PAdelFc-Cys) (designed binder) IAAKFDHKQSTADTIILELPNLTEEQRNAFRQSLSDDPSVSKEVLYEAIWLNWSQAPKIAAKFDHKQSTADTIILELPNLTEEQRNAFRQSLSDDPSVSKEVLYEAIWLNWSQAPKIAAKFDEAQQAADYEILHLPNLTEEQRNAFRQSLRDDPSVSLEVLGEAQKLNDSQAPKIAAKFDEAQQAADYEILHLPNLTEEQRNAFRQSLRDDPSVSLEVLGEAQKLNDSQAPKC | 118 | 10.3 | – | – |
| CID206081 (SEQ1-SEQ2-PAdelFc-PAdelFc-Cys) (designed binder) IAAKFDHKQSTADTIILELPNLTEEQRNAFRQSLSDDPSVSKEVLYEAIWLNWSQAPKIAAKFDQHQSTADEIILKLPNLTEEQRNAFRQSLSDDTSVSREVLYEALWLNASQAPKIAAKFDEAQQAADYEILHLPNLTEEQRNAFRQSLRDDPSVSLEVLGEAQKLNDSQAPKIAAKFDEAQQAADYEILHLPNLTEEQRNAFRQSLRDDPSVSLEVLGEAQKLNDSQAPKC | 80.2 | – | – | – |
| CID204815 (PAdelFc-SEQ1-PAdelFc-Cys) (designed binder, Built from the printed domain order) IAAKFDEAQSAADSEILHLPNLTEEQRNAFRQSLSDDPSVSLEVLGEAQKLNDSQAPKIAAKFDHKQSTADTIILELPNLTEEQRNAFRQSLSDDPSVSKEVLYEAIWLNWSQAPKIAAKFDEAQSAADSEILHLPNLTEEQRNAFRQSLSDDPSVSLEVLGEAQKLNDSQAPKC | – | 8.3 | – | Kd [4]: 75 nM |
| CID204783 (PAdelFc-SEQ2-PAdelFc-Cys) (designed binder, Built from the printed domain order) IAAKFDEAQSAADSEILHLPNLTEEQRNAFRQSLSDDPSVSLEVLGEAQKLNDSQAPKIAAKFDQHQSTADEIILKLPNLTEEQRNAFRQSLSDDTSVSREVLYEALWLNASQAPKIAAKFDEAQSAADSEILHLPNLTEEQRNAFRQSLSDDPSVSLEVLGEAQKLNDSQAPKC | 239 | – | – | – |
| CID206142 (PAdelFc-SEQ4-PAdelFc-Cys) (designed binder, Built from the printed domain order) IAAKFDEAQSAADSEILHLPNLTEEQRNAFRQSLSDDPSVSLEVLGEAQKLNDSQAPKIAAKFDYIQHMADDYILQLRNLTEEQRNAFRQSLSDDPSVSMVVLYRADWLNEHQAPKIAAKFDEAQSAADSEILHLPNLTEEQRNAFRQSLSDDPSVSLEVLGEAQKLNDSQAPKC | – | – | 4.5 | – |
| CID206137 (PAdelFc-SEQ6-PAdelFc-Cys) (designed binder, Built from the printed domain order) IAAKFDEAQSAADSEILHLPNLTEEQRNAFRQSLSDDPSVSLEVLGEAQKLNDSQAPKIAAKFDDIQMMADAQILILYNLTEEQRNAFRQSLSDDPSVSLVVLYKADWLNRHQAPKIAAKFDEAQSAADSEILHLPNLTEEQRNAFRQSLSDDPSVSLEVLGEAQKLNDSQAPKC | – | – | 6.4 | – |
| CID206146 (PAdelFc-SEQ3-PAdelFc-Cys) (designed binder, Built from the printed domain order) IAAKFDEAQSAADSEILHLPNLTEEQRNAFRQSLSDDPSVSLEVLGEAQKLNDSQAPKIAAKFDYVQSMADAQILQLINLTEEQRNAFRQSLSDDPSVSMVVLYRADWLNEHQAPKIAAKFDEAQSAADSEILHLPNLTEEQRNAFRQSLSDDPSVSLEVLGEAQKLNDSQAPKC | 4.2 | 11 | 3.8 | Kd [5]: 2.64 nM |
| CID206136 (PAdelFc-SEQ7-PAdelFc-Cys) (designed binder, Built from the printed domain order) IAAKFDEAQSAADSEILHLPNLTEEQRNAFRQSLSDDPSVSLEVLGEAQKLNDSQAPKIAAKFDQIQAMADQYILHLMNLTEEQRNAFRQSLSDDPSVSMIVLYKADWLNDKQAPKIAAKFDEAQSAADSEILHLPNLTEEQRNAFRQSLSDDPSVSLEVLGEAQKLNDSQAPKC | – | – | 6.3 | – |
| CID206141 (PAdelFc-SEQ5-PAdelFc-Cys) (designed binder, Built from the printed domain order) IAAKFDEAQSAADSEILHLPNLTEEQRNAFRQSLSDDPSVSLEVLGEAQKLNDSQAPKIAAKFDYIQEMADKHILMLHNLTEEQRNAFRQSLSDDPSVSMLVLYKAHWLNQSQAPKIAAKFDEAQSAADSEILHLPNLTEEQRNAFRQSLSDDPSVSLEVLGEAQKLNDSQAPKC | – | – | 4.6 | – |
| CID206121 (PAdelFc-SEQ8-PAdelFc-Cys) (designed binder, Built from the printed domain order) IAAKFDEAQSAADSEILHLPNLTEEQRNAFRQSLSDDPSVSLEVLGEAQKLNDSQAPKIAAKFDEAQSAADSEILHLPNLTEYHRIQHRYWLVWDPSVSQFTLRDAQALNDWQAPKIAAKFDEAQSAADSEILHLPNLTEEQRNAFRQSLSDDPSVSLEVLGEAQKLNDSQAPKC | – | – | 15.7 | – |
